Results are given in words; binding and its absence hold for the method and conditions named. Binding seen in cells or lysates may run through a third protein. Some results given as binding are weak or reduced against the parent protein; the word gives no strength.
What was measured:
Assay in all cases: pull-down; only the target purified
[1] = target: GST-CPE_(116–319) fusion protein (Clostridium perfringens) (UniProt P01558)
[2] = target: CPE_(194–309) (Clostridium perfringens) (UniProt P01558)
[3] = target: CPE_(194–319) (Clostridium perfringens) (UniProt P01558)

Protein sequences, listed by entry. Tags and fused reporters are not part of them. Lines headed by an entry give the natural chain unless they say otherwise; changes in a name come on top. Residues count along the entry.
UniProt P01558: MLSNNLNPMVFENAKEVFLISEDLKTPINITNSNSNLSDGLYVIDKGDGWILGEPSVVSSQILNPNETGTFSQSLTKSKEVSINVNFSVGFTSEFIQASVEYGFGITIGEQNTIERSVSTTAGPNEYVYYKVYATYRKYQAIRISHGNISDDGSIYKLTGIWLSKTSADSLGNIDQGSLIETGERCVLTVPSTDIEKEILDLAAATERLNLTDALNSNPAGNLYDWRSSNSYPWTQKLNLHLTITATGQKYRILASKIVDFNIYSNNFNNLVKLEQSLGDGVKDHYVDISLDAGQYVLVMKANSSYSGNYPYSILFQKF
GST-CPE_(116–319) fusion protein: residues 116-319 of P01558
CPE_(194–319): residues 194-319 of P01558
CPE_(194–309): residues 194-309 of P01558
UniProt Q9Z1L1: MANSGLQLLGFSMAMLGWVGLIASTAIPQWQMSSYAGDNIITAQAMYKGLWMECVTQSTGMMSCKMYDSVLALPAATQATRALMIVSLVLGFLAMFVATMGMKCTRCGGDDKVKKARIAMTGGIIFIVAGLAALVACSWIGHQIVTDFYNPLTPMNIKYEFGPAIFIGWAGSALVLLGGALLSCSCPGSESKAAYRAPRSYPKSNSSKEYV
UniProt A0A0G2K2P5: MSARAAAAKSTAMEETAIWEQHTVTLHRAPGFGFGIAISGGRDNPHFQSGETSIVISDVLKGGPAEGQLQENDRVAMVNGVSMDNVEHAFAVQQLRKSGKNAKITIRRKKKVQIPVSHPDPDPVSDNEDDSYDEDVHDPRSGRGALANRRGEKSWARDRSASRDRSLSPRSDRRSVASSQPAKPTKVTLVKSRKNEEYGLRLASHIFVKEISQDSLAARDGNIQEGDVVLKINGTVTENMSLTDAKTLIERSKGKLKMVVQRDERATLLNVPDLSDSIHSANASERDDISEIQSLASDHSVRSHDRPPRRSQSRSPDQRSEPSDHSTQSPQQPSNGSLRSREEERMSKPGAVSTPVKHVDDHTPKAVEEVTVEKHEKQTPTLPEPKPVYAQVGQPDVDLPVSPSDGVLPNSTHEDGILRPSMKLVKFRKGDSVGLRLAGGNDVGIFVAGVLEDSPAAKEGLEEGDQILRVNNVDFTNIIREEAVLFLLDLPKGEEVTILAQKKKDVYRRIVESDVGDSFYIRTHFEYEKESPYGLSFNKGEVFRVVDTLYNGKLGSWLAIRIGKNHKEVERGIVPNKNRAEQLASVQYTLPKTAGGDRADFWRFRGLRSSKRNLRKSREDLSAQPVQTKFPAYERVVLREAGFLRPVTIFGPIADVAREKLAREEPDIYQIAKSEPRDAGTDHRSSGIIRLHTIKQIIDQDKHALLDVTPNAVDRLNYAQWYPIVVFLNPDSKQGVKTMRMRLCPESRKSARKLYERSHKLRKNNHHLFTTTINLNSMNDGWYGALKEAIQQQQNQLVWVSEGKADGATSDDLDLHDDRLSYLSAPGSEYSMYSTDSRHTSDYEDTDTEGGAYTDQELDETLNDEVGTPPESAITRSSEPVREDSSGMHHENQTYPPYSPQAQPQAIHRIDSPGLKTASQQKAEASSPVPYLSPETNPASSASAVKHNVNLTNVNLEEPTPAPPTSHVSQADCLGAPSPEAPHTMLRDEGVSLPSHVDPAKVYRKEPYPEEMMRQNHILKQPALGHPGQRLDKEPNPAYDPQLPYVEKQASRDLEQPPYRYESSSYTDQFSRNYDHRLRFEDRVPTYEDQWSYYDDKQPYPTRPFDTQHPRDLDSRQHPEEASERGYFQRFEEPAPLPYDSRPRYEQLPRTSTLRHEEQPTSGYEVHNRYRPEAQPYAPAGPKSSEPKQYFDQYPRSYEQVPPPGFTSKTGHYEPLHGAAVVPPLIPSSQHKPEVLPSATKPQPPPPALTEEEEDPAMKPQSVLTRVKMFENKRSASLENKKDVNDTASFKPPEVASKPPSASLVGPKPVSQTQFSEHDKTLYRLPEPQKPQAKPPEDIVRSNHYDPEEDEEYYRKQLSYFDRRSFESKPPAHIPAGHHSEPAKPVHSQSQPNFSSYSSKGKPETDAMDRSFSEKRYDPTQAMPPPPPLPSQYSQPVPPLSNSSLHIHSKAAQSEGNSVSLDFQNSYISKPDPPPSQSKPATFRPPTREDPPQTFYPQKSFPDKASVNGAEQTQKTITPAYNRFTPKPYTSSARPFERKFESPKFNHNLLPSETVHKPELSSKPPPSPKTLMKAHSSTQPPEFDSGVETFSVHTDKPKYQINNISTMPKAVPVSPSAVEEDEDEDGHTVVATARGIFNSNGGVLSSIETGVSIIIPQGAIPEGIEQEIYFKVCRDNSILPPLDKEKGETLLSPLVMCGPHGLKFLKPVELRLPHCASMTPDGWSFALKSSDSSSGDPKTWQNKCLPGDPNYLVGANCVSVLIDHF

Which binding [1] does the source give for Claudin-7 (from UniProt Q9Z1L1 1-211) here?
Its binding is “binds”.

Which binding [1] does the source give for ZO-1 (from UniProt A0A0G2K2P5 1-1765) here?
The binding was “no binding”.

B1: Claudin-3 (protein, UniProt Q63400 1-219)
chain: MSMGLEITGTSLAVLGWLCTIVCCALPMWRVSAFIGSSIITAQITWEGLWMNCVVQSTGQMQCKMYDSLLALPQDLQAARALIVVSILLAAFGLLVALVGAQCTNCVQDETAKAKITIVAGVLFLLAAVLTLVPVSWSANTIIRDFYNPLVPEAQKREMGTGLYVGWAAAALQLLGGALLCCSCPPREKYAPTKILYSAPRSTGPGTGTGTAYDRKDYV
Which results are given for B1?
binding [2]: no binding; binding [3]: binds; binding [1]: binds
